# Assay results from PubChem BioAssay AID894 (National Center for Advancing Translational Sciences (NCATS), 2007).
# In all, about 150,000 compounds went through this assay and about 6,500 (4.3%) were called active. Inconclusive results, whose numbers are uncertain, are shown with a selection of clear calls. Calls come from the whole dose curve; as a rule, active = well fitted inhibition curve with a large enough effect (not every such curve was filed as active); inconclusive = small, poorly fitted or top-dose-only effect, or another doubt; inactive = no such curve, though single readings can be large or run the other way. Potencies of inconclusive entries are left out as doubtful fits.
# Target: 15-hydroxyprostaglandin dehydrogenase [NAD(+)] (Homo sapiens) (UniProt P15428)
# UniProt P15428, sequence (P15428 whole entry, looked up): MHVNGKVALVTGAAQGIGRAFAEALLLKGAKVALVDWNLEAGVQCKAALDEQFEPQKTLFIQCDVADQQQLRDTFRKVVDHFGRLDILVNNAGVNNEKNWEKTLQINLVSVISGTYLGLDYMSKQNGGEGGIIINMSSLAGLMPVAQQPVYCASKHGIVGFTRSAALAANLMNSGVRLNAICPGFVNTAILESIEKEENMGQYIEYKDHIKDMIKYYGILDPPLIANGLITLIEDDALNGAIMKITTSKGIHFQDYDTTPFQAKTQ
# Test: qHTS Assay for Inhibitors of HPGD (15-Hydroxyprostaglandin Dehydrogenase)
# Settings: purified HPGD, NADH fluorescence kinetic, PGE2 substrate; activity change, negative = inhibition: hits give low values
# How it was run: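 NADH formation kinetics: reaction with 30 uM PGE2 and 1 mM NAD+ (final), 20 nM enzyme, Tris-HCl pH 8 with Tween 20, after 15 min compound preincubation at room temperature. Fluorescence change, last versus first of five reads.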
# % is set by controls: 0 for no effect and ±100 for the full control effect; potency is the fitted concentration of half-maximal effect; tags give direction and shape of the fitted curve.
SMILES,Potency,"activity change, negative = inhibition"
COC(=O)c1ccc2ccn(CC(=O)NC3CCCCC3)c2c1,"inconclusive [inhibitor, partial curve]",–
CCOc1cccc2cc(-c3csc(NC(=O)CCC(=O)N4CCC(C)CC4)n3)c(=O)oc12,"inconclusive [inhibitor, partial curve]",–
Cc1cccc(OCCn2c(=S)[nH]c3ccccc32)c1,active: 2 µM,–
COc1ccc(/C(N)=N/OC(=O)Oc2ccccc2)cc1OC,"inconclusive [inhibitor, partial curve]",–
COc1ccc(S(=O)(=O)N(CC(=O)Nc2ccc(S(=O)(=O)N3CCOCC3)cc2)c2ccccc2)cc1,active: 3.55 µM,–
O=C(c1cccc(-c2nnc(-c3ccccc3)o2)c1)N1CCCCCC1,active: 8.91 µM,–
CNC(=O)c1cc2ccc(OC)cc2oc1=O,"inconclusive [inhibitor, partial curve]",–
CC(C)C(NS(=O)(=O)c1ccc2c(c1)oc(=O)n2C)C(=O)N1CCN(c2ccccc2F)CC1 (stereo unspecified),–,inactive: 2.66%
CCOc1ccc(C(C#N)N2CCOCC2)cc1OC (stereo unspecified),–,inactive: -13.4%
CC(C)(C)c1ccc(-c2nc3c(C#N)c(-c4ccc5c(c4)OCO5)ccn3n2)cc1,"inconclusive [inhibitor, partial curve]",–
COc1ccc(/C=C/C(=O)N2c3ccccc3Sc3ccc(C(F)(F)F)cc32)cc1,"inconclusive [inhibitor, partial curve]",–
COC(=O)[C@H]1Cc2c([nH]c3ccccc23)CN1C(=O)COc1ccc2c(C)cc(=O)oc2c1,–,inactive: -19.3%
Cc1c(Cc2ccccc2)sc(/N=C/c2ccc3ccccc3c2)c1C(N)=O,"inconclusive [inhibitor, single point]",–
CSc1nc2nc(C)cc(-c3ccccc3)n2n1,"inconclusive [inhibitor, partial curve]",–
COc1ccc2[nH]c3c(NCCN4CCCCC4)ncnc3c2c1,"inconclusive [inhibitor, partial curve]",–
COC(=O)C1=C(C)N(CCc2ccc(OC)c(OC)c2)C(=O)/C1=C\N(C)C,–,inactive: -7.04%
CCS(=O)(=O)NCc1ccc2[nH]c3c(c2c1)CCCC3,–,inactive: -15.3%
COc1cccc(NC(=O)CSc2ccc3nnc(-c4ccncc4)n3n2)c1,"inconclusive [inhibitor, single point]",–
COc1ccc2c(c1)c1ncn(CCc3ccccc3)c(=O)c1n2C,"inconclusive [inhibitor, partial curve]",–
COc1ccccc1C(=O)Nc1ccc(C(=O)N2CCCC2)cc1,active: 1.41 µM,–
CC(C)OC(=O)C1=C(N)N2C(=O)CSC2=C(C(=O)OC(C)C)C1,"inconclusive [inhibitor, partial curve]",–
CCOc1ccc(C2NC(=O)c3sc(=S)n(-c4ccccc4)c3N2)cc1 (stereo unspecified),"inconclusive [inhibitor, single point]",–
COc1cc2cc(C(c3nnnn3C(C)(C)C)N3CCC(C)CC3)c(=O)[nH]c2cc1OC (stereo unspecified),"inconclusive [inhibitor, single point]",–
CCn1nnc(NC(=O)c2cccc(-c3cc4ccccc4oc3=O)c2)n1,"inconclusive [inhibitor, partial curve]",–

SMILES,Potency,"activity change, negative = inhibition"
COc1ccc(NC(=O)c2oc3ccccc3c2C)c(OC)c1,"inconclusive [inhibitor, single point]",–
COc1ccc(NC(=O)c2sc(SC)nc2N)cc1,–,inactive: -7%
COc1ccc(NC(=O)c2oc3ccccc3c2NC(=O)C2CC2)cc1,"inconclusive [inhibitor, single point]",–
CCCc1cc2c(n1CCc1ccc(Cl)cc1)C(C)C1CN(C(=O)c3ccccc3)C(C)(C(=O)OC)C21 (stereo unspecified),–,inactive: -14.2%
Cc1nn(C(C)c2n[nH]c(=S)n2-c2cccc(Cl)c2)c(C)c1[N+](=O)[O-] (stereo unspecified),active: 22.4 µM,–
O=C(NCC1CCCO1)c1cc2n(n1)C(C(F)(F)F)CC(c1ccc(F)cc1)N2 (stereo unspecified),"inconclusive [inhibitor, partial curve]",–
O=C(Cn1cnc2c(nnn2Cc2ccccc2F)c1=O)NCC1CCCO1 (stereo unspecified),"inconclusive [inhibitor, partial curve]",–
CC(Oc1ccc(C(C)(C)C)cc1)c1ccnc2nc(/N=C/N(C)C)nn12 (stereo unspecified),"inconclusive [inhibitor, partial curve]",–
COc1ccc(N2CCC(CNC(=O)Nc3ccccc3)C2)cc1 (stereo unspecified),"inconclusive [inhibitor, partial curve]",–
CC1=CC(C)(C)Nc2ccc(OC(=O)C(C)N3C(=O)c4ccccc4C3=O)cc21 (stereo unspecified),–,inactive: -15.1%
c1ccc(CNc2ccnc(-c3ccoc3)n2)cc1,–,inactive: -17.8%
c1ccc(N2CCOCC2)c(Nc2nc3ccccc3n3cnnc23)c1,"inconclusive [inhibitor, partial curve]",–
CC1(C(=O)N(CC(=O)NC2CCCC2)C2CCCC2)CC(=O)N=C2C=CC=CN21 (stereo unspecified),"inconclusive [inhibitor, partial curve]",–
CC(=O)Nc1ccccc1-c1nc2ccc(C(=O)N3CCN(c4ccccc4)CC3)cc2[nH]c1=O,"inconclusive [inhibitor, partial curve]",–
C[C@]12O[C@H]1[C@@H](O)C(Br)=C(CO)[C@H]2O,–,inactive: -4.24%
CSc1nc(-c2ccco2)nn1C(=O)c1ccccc1,active: 14.1 µM,–
CC1(C)C(C=C(Cl)Cl)C1C(=O)Nc1ccc([N+](=O)[O-])cc1 (stereo unspecified),–,inactive: -20.9%
O=C(Nc1ccccc1)OC1CCC2CC1CCC2OC(=O)Nc1ccccc1 (stereo unspecified),–,inactive: -12.7%
O=C(Oc1ccc(F)cc1C(=O)/C=C/c1cccs1)c1cccc([N+](=O)[O-])c1,–,inactive: -10.4%
CCCCn1c(CCn2nc(C)c(Br)c2C)n[nH]c1=S,active: 22.4 µM,–
CN=C1c2c(-c3ccccc3)c3cc(OC)ccc3n2CCN1C,"inconclusive [inhibitor, single point]",–
Cc1ccc2nc(NC(=O)c3ccco3)sc2c1,–,inactive: -18.7%
CCCN1CCN(CCCNC(=O)Cn2ncc3c4ccccc4n(C)c3c2=O)CC1,"inconclusive [inhibitor, partial curve]",–
CCCCCOc1ccc(/C=C/C(=O)NCCc2nc3ccccc3[nH]2)cc1OC,"inconclusive [inhibitor, partial curve]",–

SMILES,Potency,"activity change, negative = inhibition"
CC(C)OC(=O)c1sc2nc3c(cc2c1N)C(=O)CCC3,active: 28.2 µM,–
CC1=NN(Cc2ccccc2)C(=O)C1C(c1ccc(Cl)cc1)C(C#N)C#N (stereo unspecified),active: 28.2 µM,–
CNc1oc(-c2ccccc2)nc1C#N,"inconclusive [inhibitor, partial curve]",–
COc1ccc(-n2ncc3c(NC(C)C)ncnc32)cc1,"inconclusive [inhibitor, partial curve]",–
CN(C(=O)Nc1ccc(Cl)cc1Cl)[C@H]1c2cc(Br)ccc2OC[C@H]1CO,–,inactive: -19.9%
COc1cccc(-c2cc3c(-n4cccc4)ncnc3o2)c1,"inconclusive [inhibitor, partial curve]",–
COc1ccc(OCCC(=O)OCc2c(C)noc2C)cc1,–,inactive: -13.8%
Cc1ccc(C)c(N2CCN(C(c3ccncc3)c3nnnn3Cc3ccccc3)CC2)c1 (stereo unspecified),"inconclusive [inhibitor, single point]",–
CC(=O)COc1ccc2c3c(c(=O)oc2c1C)CCCCC3,"inconclusive [inhibitor, partial curve]",–
COc1cc(CNc2ccccc2SC)cc(OC)c1OC,"inconclusive [inhibitor, single point]",–
Cn1nnc(NC(=S)NC(=O)c2ccco2)n1,"inconclusive [inhibitor, single point]",–
CC(CN1CCCCC1)OC(=O)c1ccc(Cl)cc1Cl (stereo unspecified),"inconclusive [inhibitor, partial curve]",–
CC(=O)Nc1ccc2nc(-c3cccs3)[nH]c2c1,"inconclusive [inhibitor, partial curve]",–
Cc1ccc(-c2nn3c(C)nnc3c3ccccc23)cc1S(=O)(=O)NCc1ccccc1,"inconclusive [inhibitor, partial curve]",–
CC(C)(C)NC(=O)Nc1ccc2nccnc2c1,"inconclusive [inhibitor, partial curve]",–
CC(=O)Nc1ccc2ccc3cccc4ccc1c2c34,"inconclusive [inhibitor, partial curve, poor fit]",–
COc1ccc(-c2cc(C(=O)NCc3cccnc3)no2)cc1OC,"inconclusive [inhibitor, partial curve]",–
CCOC(=O)c1c(-c2ccc(C)s2)csc1NC(=O)c1ccco1,"inconclusive [inhibitor, single point]",–
O=C(CSc1nc(-c2ccccc2)cs1)NCc1ccco1,active: 28.2 µM,–
Cc1ccccc1C(=O)NC1CCN(Cc2nnnn2Cc2ccccc2)CC1,–,inactive: -16.1%
CC(C)Oc1ccc(Cn2c(-c3ccco3)n[nH]c2=S)cc1,"inconclusive [inhibitor, partial curve]",–
COc1cccc2cc(C(=O)N3CCC(C)CC3)c(=O)oc12,active: 12.6 µM,–
CCCCN(CC)CCCNC(=O)c1cc2cc3ccc(OC)cc3nc2o1,"inconclusive [inhibitor, partial curve]",–
